The chains are these.
T1: RBFOX1 RRM (Homo sapiens, UniProt Q9NWB1 109-208)
T1 sequence: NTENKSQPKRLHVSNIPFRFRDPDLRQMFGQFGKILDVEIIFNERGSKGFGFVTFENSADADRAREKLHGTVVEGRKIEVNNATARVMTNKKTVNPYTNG

B1: UCGUCCG (DNA:RNA)
RNA: GGGAGACCGGAAUUCAGAUUGUCCUCGUCCGUUAAAUCCCGUCGUAGCCACCA
DNA 1: CAATCTGAATTCCGGTCTCCC
DNA 2: TGGTGGCTACGACGGGATT
B2: ACGUUAG (DNA:RNA)
RNA: B1 RNA with U25A, C29U, C30A
DNA 1: CAATCTGAATTCCGGTCTCCC
DNA 2: TGGTGGCTACGACGGGATT
B3: CGUAAAG (DNA:RNA)
RNA: B1 RNA with U25C, C26G, G27U, U28A, C29A, C30A
DNA 1: CAATCTGAATTCCGGTCTCCC
DNA 2: TGGTGGCTACGACGGGATT
B4: CCGCCCG (DNA:RNA)
RNA: B1 RNA with U25C, U28C
DNA 1: CAATCTGAATTCCGGTCTCCC
DNA 2: TGGTGGCTACGACGGGATT
B5: UGCUGCU (DNA:RNA)
RNA: B1 RNA with C26G, G27C, C29G, G31U
DNA 1: CAATCTGAATTCCGGTCTCCC
DNA 2: TGGTGGCTACGACGGGATT
B6: UCGGCCA (DNA:RNA)
RNA: B1 RNA with U28G, G31A
DNA 1: CAATCTGAATTCCGGTCTCCC
DNA 2: TGGTGGCTACGACGGGATT
B7: AUUAUGU (DNA:RNA)
RNA: GGGAGACCGGAAUUCAGAUUGUCCAUUAUGUUUAAAUCCCGUCGUAGCCACCA
DNA 1: CAATCTGAATTCCGGTCTCCC
DNA 2: TGGTGGCTACGACGGGATT
B8: ACCAGAC (DNA:RNA)
RNA: B7 RNA with U26C, U27C, U29G, G30A, U31C
DNA 1: CAATCTGAATTCCGGTCTCCC
DNA 2: TGGTGGCTACGACGGGATT
B9: GAGGUUA (DNA:RNA)
RNA: B7 RNA with A25G, U26A, U27G, A28G, G30U, U31A
DNA 1: CAATCTGAATTCCGGTCTCCC
DNA 2: TGGTGGCTACGACGGGATT
B10: GAUGUCU (DNA:RNA)
RNA: B7 RNA with A25G, U26A, A28G, G30C
DNA 1: CAATCTGAATTCCGGTCTCCC
DNA 2: TGGTGGCTACGACGGGATT
B11: AGCCCGG (DNA:RNA)
RNA: B7 RNA with U26G, U27C, A28C, U29C, U31G
DNA 1: CAATCTGAATTCCGGTCTCCC
DNA 2: TGGTGGCTACGACGGGATT
B12: GGGUUAC (DNA:RNA)
RNA: B1 RNA with U25G, C26G, C29U, C30A, G31C
DNA 1: CAATCTGAATTCCGGTCTCCC
DNA 2: TGGTGGCTACGACGGGATT
B13: UCAGCGC (DNA:RNA)
RNA: B1 RNA with G27A, U28G, C30G, G31C
DNA 1: CAATCTGAATTCCGGTCTCCC
DNA 2: TGGTGGCTACGACGGGATT
B14: UCUCGGC (DNA:RNA)
RNA: B7 RNA with A25U, U26C, A28C, U29G, U31C
DNA 1: CAATCTGAATTCCGGTCTCCC
DNA 2: TGGTGGCTACGACGGGATT
B15: AGACACC (DNA:RNA)
RNA: B7 RNA with U26G, U27A, A28C, U29A, G30C, U31C
DNA 1: CAATCTGAATTCCGGTCTCCC
DNA 2: TGGTGGCTACGACGGGATT
B16: GAAUGAU (DNA:RNA)
RNA: B7 RNA with A25G, U26A, U27A, A28U, U29G, G30A
DNA 1: CAATCTGAATTCCGGTCTCCC
DNA 2: TGGTGGCTACGACGGGATT
B17: CUUACUC (DNA:RNA)
RNA: B7 RNA with A25C, U29C, G30U, U31C
DNA 1: CAATCTGAATTCCGGTCTCCC
DNA 2: TGGTGGCTACGACGGGATT
B18: UAAACGG (DNA:RNA)
RNA: B1 RNA with C26A, G27A, U28A, C30G
DNA 1: CAATCTGAATTCCGGTCTCCC
DNA 2: TGGTGGCTACGACGGGATT
B19: AGAGGCG (DNA:RNA)
RNA: B1 RNA with U25A, C26G, G27A, U28G, C29G
DNA 1: CAATCTGAATTCCGGTCTCCC
DNA 2: TGGTGGCTACGACGGGATT
B20: AGUGACA (DNA:RNA)
RNA: B7 RNA with U26G, A28G, U29A, G30C, U31A
DNA 1: CAATCTGAATTCCGGTCTCCC
DNA 2: TGGTGGCTACGACGGGATT
B21: AUUGUCC (DNA:RNA)
RNA: B7 RNA with A28G, G30C, U31C
DNA 1: CAATCTGAATTCCGGTCTCCC
DNA 2: TGGTGGCTACGACGGGATT
B22: GGCCCUG (DNA:RNA)
RNA: B1 RNA with U25G, C26G, G27C, U28C, C30U
DNA 1: CAATCTGAATTCCGGTCTCCC
DNA 2: TGGTGGCTACGACGGGATT
B23: GAACUCC (DNA:RNA)
RNA: B7 RNA with A25G, U26A, U27A, A28C, G30C, U31C
DNA 1: CAATCTGAATTCCGGTCTCCC
DNA 2: TGGTGGCTACGACGGGATT
B24: GCCGUGU (DNA:RNA)
RNA: B7 RNA with A25G, U26C, U27C, A28G
DNA 1: CAATCTGAATTCCGGTCTCCC
DNA 2: TGGTGGCTACGACGGGATT
B25: GUUGACG (DNA:RNA)
RNA: B7 RNA with A25G, A28G, U29A, G30C, U31G
DNA 1: CAATCTGAATTCCGGTCTCCC
DNA 2: TGGTGGCTACGACGGGATT
B26: UCAAUGC (DNA:RNA)
RNA: B7 RNA with A25U, U26C, U27A, U31C
DNA 1: CAATCTGAATTCCGGTCTCCC
DNA 2: TGGTGGCTACGACGGGATT
B27: GUUGUAU (DNA:RNA)
RNA: B7 RNA with A25G, A28G, G30A
DNA 1: CAATCTGAATTCCGGTCTCCC
DNA 2: TGGTGGCTACGACGGGATT
B28: CGCUGGC (DNA:RNA)
RNA: B7 RNA with A25C, U26G, U27C, A28U, U29G, U31C
DNA 1: CAATCTGAATTCCGGTCTCCC
DNA 2: TGGTGGCTACGACGGGATT
B29: UUGGCUC (DNA:RNA)
RNA: B1 RNA with C26U, U28G, C30U, G31C
DNA 1: CAATCTGAATTCCGGTCTCCC
DNA 2: TGGTGGCTACGACGGGATT
B30: CCCAGUA (DNA:RNA)
RNA: B7 RNA with A25C, U26C, U27C, U29G, G30U, U31A
DNA 1: CAATCTGAATTCCGGTCTCCC
DNA 2: TGGTGGCTACGACGGGATT
B31: UCAAUCG (DNA:RNA)
RNA: B1 RNA with G27A, U28A, C29U
DNA 1: CAATCTGAATTCCGGTCTCCC
DNA 2: TGGTGGCTACGACGGGATT

Residue numbers refer to the chain shown, from its start. Some of the results follow.

In the assay the target is T1, RBFOX1 RRM. Put plainly: EMSA; HiTS-Eq, 1 nM pool, 10 min; buffer printed only for the single-RNA assays: 10 mM Tris pH 7.5, 150 mM NaCl, 3.4 mM EDTA, 0.001% NP-40, 30 C. Particulars: tags: His6 N-terminal (pET28a); label: 5' 32P. In outline: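 Purified RbFox RRM, wild type or mutant, was incubated for 10 min in 50 µL with 1 nM of a 5′-radiolabelled RNA pool carrying 7 randomized nucleotides, whose flanks were annealed to DNA oligonucleotides, over a series of increasing protein concentrations. Unbound RNA was resolved on 8% native PAGE, cut out, reverse-transcribed, barcoded by PCR and sequenced on an Illumina HiSeq 2500. Relative association constants were derived from changes in read counts for each RNA species versus the control reaction and normalised to the cognate motif.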
In the case of B1, the binding signal was 0.016 KA relative to UGCAUGU. The same measure for B2: 0.00974 KA relative to UGCAUGU; for B3: 0.00653 KA relative to UGCAUGU. Then B4, with 0.0135 KA relative to UGCAUGU. The same measure for B5: 0.0249 KA relative to UGCAUGU; for B6: 0.0129 KA relative to UGCAUGU. As to B7, the binding signal was 0.00621 KA relative to UGCAUGU. Then B8, with 0.00401 KA relative to UGCAUGU; and B9, with 0.0124 KA relative to UGCAUGU; and B10, with 0.0204 KA relative to UGCAUGU. Then B11, with 0.0103 KA relative to UGCAUGU; and B12, with 0.0178 KA relative to UGCAUGU; and B13, with 0.00976 KA relative to UGCAUGU. As for B14, the binding signal was 0.012 KA relative to UGCAUGU.

Turning to B15, the binding signal is 0.00302 KA relative to UGCAUGU. Then B16, with 0.0221 KA relative to UGCAUGU.

For the molecule B17, the binding signal was 0.00612 KA relative to UGCAUGU. For the molecule B18, the binding signal was 0.00824 KA relative to UGCAUGU. The same measure for B19: 0.0154 KA relative to UGCAUGU; for B20: 0.00523 KA relative to UGCAUGU.

As for B21, the binding signal is 0.00619 KA relative to UGCAUGU. The same measure for B22: 0.0193 KA relative to UGCAUGU; for B23: 0.00433 KA relative to UGCAUGU; for B24: 0.015 KA relative to UGCAUGU. Then B25, with 0.0143 KA relative to UGCAUGU; and B26, with 0.0089 KA relative to UGCAUGU. B27: the binding signal is 0.0103 KA relative to UGCAUGU. Then B28, with 0.0221 KA relative to UGCAUGU; and B29, with 0.0219 KA relative to UGCAUGU.

For the molecule B30, the binding signal is 0.000997 KA relative to UGCAUGU. Turning to B31, the binding signal was 0.0054 KA relative to UGCAUGU.

The record behind these values is article PMC9911399, “Two distinct binding modes provide the RNA-binding protein RbFox with extraordinary sequence specificity”.
